Reference: PMC2833206
Numbering of substitutions follows the chain as printed. These are yes or no findings as the source states them, for the method shown. Binding seen in cells or lysates may run through a third protein. Some results given as binding are weak or reduced against the parent protein; the word gives no strength. For some assays here: Tags and fused reporters may be left off the sequences shown.

Chains of the proteins cited; added tags and fusions are not shown. Lines headed by an entry give the natural chain unless they say otherwise; changes in a name come on top.
UniProt Q9Y6R4: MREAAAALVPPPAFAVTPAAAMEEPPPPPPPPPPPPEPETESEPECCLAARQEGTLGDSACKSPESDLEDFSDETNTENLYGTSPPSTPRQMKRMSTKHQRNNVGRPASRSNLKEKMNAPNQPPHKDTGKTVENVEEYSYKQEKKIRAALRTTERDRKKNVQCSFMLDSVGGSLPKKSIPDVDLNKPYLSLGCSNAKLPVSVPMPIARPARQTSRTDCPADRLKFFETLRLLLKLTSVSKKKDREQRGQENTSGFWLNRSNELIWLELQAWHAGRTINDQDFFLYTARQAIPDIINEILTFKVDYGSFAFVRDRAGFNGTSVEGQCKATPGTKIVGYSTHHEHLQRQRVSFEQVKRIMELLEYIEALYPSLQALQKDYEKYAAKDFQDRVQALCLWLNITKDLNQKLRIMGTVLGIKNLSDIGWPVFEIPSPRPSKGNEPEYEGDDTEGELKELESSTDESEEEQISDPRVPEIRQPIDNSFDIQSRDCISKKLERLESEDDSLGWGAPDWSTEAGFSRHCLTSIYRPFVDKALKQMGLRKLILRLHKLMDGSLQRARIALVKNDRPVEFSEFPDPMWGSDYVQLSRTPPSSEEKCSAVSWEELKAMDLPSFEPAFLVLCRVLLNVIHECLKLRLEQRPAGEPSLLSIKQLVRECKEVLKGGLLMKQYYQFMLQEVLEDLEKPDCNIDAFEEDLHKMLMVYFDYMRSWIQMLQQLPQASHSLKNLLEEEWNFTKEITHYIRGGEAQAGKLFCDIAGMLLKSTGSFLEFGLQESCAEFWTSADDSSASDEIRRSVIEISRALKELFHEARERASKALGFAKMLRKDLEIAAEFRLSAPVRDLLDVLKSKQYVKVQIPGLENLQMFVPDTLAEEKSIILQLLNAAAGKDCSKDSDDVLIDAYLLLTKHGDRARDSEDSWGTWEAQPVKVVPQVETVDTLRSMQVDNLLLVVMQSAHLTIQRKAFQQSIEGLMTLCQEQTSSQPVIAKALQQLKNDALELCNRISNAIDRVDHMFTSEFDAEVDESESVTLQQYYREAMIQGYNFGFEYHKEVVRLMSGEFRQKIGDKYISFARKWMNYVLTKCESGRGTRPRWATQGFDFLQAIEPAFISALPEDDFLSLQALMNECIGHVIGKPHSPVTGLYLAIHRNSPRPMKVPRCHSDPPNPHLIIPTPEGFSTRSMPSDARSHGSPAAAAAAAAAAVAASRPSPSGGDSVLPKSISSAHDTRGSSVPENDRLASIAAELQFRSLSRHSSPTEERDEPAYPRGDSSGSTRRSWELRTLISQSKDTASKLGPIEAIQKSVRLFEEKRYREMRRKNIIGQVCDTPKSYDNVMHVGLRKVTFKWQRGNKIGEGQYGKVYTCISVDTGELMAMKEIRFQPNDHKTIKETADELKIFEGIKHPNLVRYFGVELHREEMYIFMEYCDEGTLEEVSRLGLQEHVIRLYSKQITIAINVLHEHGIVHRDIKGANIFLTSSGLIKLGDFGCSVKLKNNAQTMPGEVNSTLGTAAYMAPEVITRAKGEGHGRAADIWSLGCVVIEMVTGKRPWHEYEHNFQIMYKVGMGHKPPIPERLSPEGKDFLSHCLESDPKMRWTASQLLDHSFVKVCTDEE
UniProt P26651: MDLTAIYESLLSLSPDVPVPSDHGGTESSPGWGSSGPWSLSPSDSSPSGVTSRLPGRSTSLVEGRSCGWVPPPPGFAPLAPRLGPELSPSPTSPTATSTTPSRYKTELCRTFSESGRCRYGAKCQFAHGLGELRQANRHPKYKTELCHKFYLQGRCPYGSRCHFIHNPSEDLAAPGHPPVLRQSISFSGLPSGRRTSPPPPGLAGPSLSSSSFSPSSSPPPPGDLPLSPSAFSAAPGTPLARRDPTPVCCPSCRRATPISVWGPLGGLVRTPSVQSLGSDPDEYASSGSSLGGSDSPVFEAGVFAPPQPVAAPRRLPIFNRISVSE

Key:
Experiment in all cases: co-IP; HEK 293 cells transfected with HA- and Flag-tagged constructs (or endogenous partner); 1 mg protein of RIPA extract, treated with RNase; anti-FLAG or anti-HA monoclonal antibody overnight at 4 °C, protein A Sepharose; western blot
[1] = target: HA-tagged mitogen-activated protein kinase kinase kinase 4 (HA-MEKK4) (UniProt Q9Y6R4)
HA-hTTP/P309V (human) = HA-hTTP/P309V (human) (UniProt P26651)
[2] = target: HA-tagged human tristetraprolin (HA-hTTP), full length (human) (UniProt P26651)
[3] = target: T1, HA-tagged mouse TTP (HA-mTTP), wild type (mouse) (UniProt P22893)
T1 sequence: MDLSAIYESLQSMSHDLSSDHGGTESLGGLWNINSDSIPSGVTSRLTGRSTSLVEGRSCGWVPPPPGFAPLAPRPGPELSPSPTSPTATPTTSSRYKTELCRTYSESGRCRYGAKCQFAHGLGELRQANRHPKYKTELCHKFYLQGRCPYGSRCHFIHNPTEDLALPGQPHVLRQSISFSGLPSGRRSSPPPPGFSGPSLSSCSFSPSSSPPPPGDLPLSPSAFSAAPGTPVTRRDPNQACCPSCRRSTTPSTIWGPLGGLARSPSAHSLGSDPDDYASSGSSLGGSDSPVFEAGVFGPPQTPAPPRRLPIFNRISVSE

HA-mTTP/T302P (mouse) = target: T2, HA-mTTP/T302P (mouse) (UniProt P22893)
T2 sequence: T1 sequence with T302P

binding [1]: binds | binding (HA-hTTP/P309V (human)): no binding | binding [2]: binds | binding [3]: no binding | binding (HA-mTTP/T302P (mouse)): binds
Substance: Flag-tagged human CIN85 (Flag-CIN85), full length (from UniProt Q96B97-1 1-665)
